Here are results for 167 variants from the RNAGym collection of RNA variant scans (doi:10.7554/elife.90254).

Read counts are not given, so values of variants with three or more changes are uncertain.

B1: LINE1-mini (parent)
chain: GGCAGAGCUCAACACAGCGUGGCAAAGUGGCUGUGGCUAGACUGCC

In this data set the parent is B1. Kind of data set: self-cleavage, relative activity (ratio to wild type); higher = more cleavage; in vitro, sequencing; the parent is a self-cleaving ribozyme.
For the variant C10A C18G G29U, the self-cleavage turned out to be 0.03.

C10G A11C G35C: the self-cleavage is 0.03.

Consider G2A G7C A14C A26G, for which the self-cleavage was 0.58.

As to G1U C3G A4U C8G A39G C45A, the self-cleavage amounted to 0.26.

With C3U U20G G21C U28A C31A U32C, the self-cleavage was 0.02.

As for C10U C23G G40C, the self-cleavage amounted to 0.03.

On to G2C C3A C13A C18A G29A C45G, for which the self-cleavage was 0.02.

For C10A G21C C37U, the self-cleavage turned out to be 0.

As for U9C C10U U34A C37U A41U C42U G44A, the self-cleavage amounted to 0.01.

As to C3A U34A G36U G40A, the self-cleavage was 0.01.

For A16U U34A C37A U43C, the self-cleavage stood at 0.01.

In the case of U9A A16C G35C C45U, the self-cleavage stood at 0.02.

With C10U G17A G33C C46G, the self-cleavage came out at 0.

As for G2A C13U A24C, the self-cleavage is 0.85.

In the case of U20A G35A C45G, the self-cleavage is 0.08.

Consider A14G G30U G35A, for which the self-cleavage came out at 0.08.

Regarding G5U G7U A16G, the self-cleavage amounted to 0.07.

In the case of G5C G36C A39C, the self-cleavage is 0.09.

As for G2C G7C C10U G29U U34A, the self-cleavage amounted to 0.07.

Take A4U G44A C45A: the self-cleavage was 0.24.

Regarding G5A C15A U32C C37G C46A, the self-cleavage amounted to 0.

Turning to A14C U28G C45A, the self-cleavage came out at 0.04.

Take A25U U34G U43A: the self-cleavage is 0.02.

Turning to A12U A41U C46G, the self-cleavage was determined as 0.11.

Consider A6U G30C G33A C42G, for which the self-cleavage is 0.02.

Regarding A6G C37G C42G, the self-cleavage was 0.36.

Take C3A G7A U9G G22U G27A G33C: the self-cleavage came out at 0.06.

Regarding C10G A26G C37U C42G, the self-cleavage was determined as 0.

On to C23A A24G G30U A41G, for which the self-cleavage was 0.09.

Turning to A12G G21A G22A U32C G40U, the self-cleavage is 0.01.

Take A4C C15A G27A C42G: the self-cleavage came out at 0.08.

For G2A C13G C23A G35C, the self-cleavage was found to be 0.73.

In the case of A6C C8A G33U C46A, the self-cleavage turned out to be 0.29.

For the variant G2C A11G G30A G33A, the self-cleavage came to 0.01.

For G7U C13G C31U G36U, the self-cleavage came out at 0.35.

In the case of G2A A4U G22C, the self-cleavage is 0.29.

Consider A4G A24U G27U C31A, for which the self-cleavage came to 0.11.

With A6G C8G C23G G29U G44U, the self-cleavage worked out at 0.

Regarding G1C U9C A14G, the self-cleavage came out at 0.

As to G19C G22A C45G, the self-cleavage came out at 0.13.

As for A11G G22C G30C C37A, the self-cleavage is 0.01.

With C8G C13A C42G, the self-cleavage worked out at 0.1.

Take U9G C10A C15G G17C: the self-cleavage is 0.02.

In the case of U20C G30U C31A, the self-cleavage was found to be 0.52.

Turning to G2C U20C C31G, the self-cleavage turned out to be 0.

As to A6G A11C C23G U34C U43C C45G, the self-cleavage was determined as 0.01.

Consider G21U G40U C42U, for which the self-cleavage amounted to 0.29.

In the case of A4U G5A G30C G40U C42U C45U, the self-cleavage was 0.03.

A4G C10G A26C: the self-cleavage worked out at 0.05.

As for C8A C23A G29A U34C, the self-cleavage was 0.19.

For the variant G21C G36C C37G, the self-cleavage came out at 0.02.

Take C3U G7C U20G A26U G30U A41C: the self-cleavage was 0.02.

Take A6G C15U G17A G27C: the self-cleavage was 0.03.

For G2C G22A C23A, the self-cleavage was found to be 0.2.

In the case of G2U C8A G17C G30A, the self-cleavage amounted to 0.05.

Consider G27A A39U C46U, for which the self-cleavage was found to be 0.67.

Turning to G17C G29U A39G, the self-cleavage was 0.3.

As for A16C U32G G36U A41U C42U, the self-cleavage was found to be 0.03.

For the variant G22U C37A A39G C45U, the self-cleavage was determined as 0.05.

U9C C37U A39U: the self-cleavage came out at 0.

With A6G C10A A12G A14C G29U, the self-cleavage was determined as 0.01.

On to C3G A6G C23A U34A, for which the self-cleavage was 0.03.

On to C13A C15A G40C, for which the self-cleavage was 0.02.

Regarding C3U A11U C23A U38A, the self-cleavage amounted to 0.03.

Turning to C15U A25U U32G U38G, the self-cleavage is 0.03.

Turning to A16C U20C A24U U34C, the self-cleavage was 0.

Take A14C U28G G36U: the self-cleavage was found to be 0.

Consider G7A A12G U34G, for which the self-cleavage was 0.01.

For the variant U20A A26U U32A A39G, the self-cleavage came out at 0.01.

Regarding A16U C23A C37U U38G C42U, the self-cleavage is 0.01.

With G1A G5U G19U, the self-cleavage is 0.04.

As to G7U G27A U28A, the self-cleavage was found to be 0.07.

Take G2A G19C G29C: the self-cleavage was 0.05.

Take G27A G29A G40A C42A: the self-cleavage turned out to be 0.12.

As to A4G G27U A41C, the self-cleavage was 0.02.

As to G1U G21C G22A A41U, the self-cleavage worked out at 0.19.

As to C8U A11C A12G U20A G27C C31G C37U A39C, the self-cleavage was 0.

Consider U9C G35U C42A, for which the self-cleavage is 0.04.

A6G C10U U34C: the self-cleavage is 0.02.

As for A14G U20A G36U, the self-cleavage is 0.01.

Turning to G5U A11G C13U A14C G21U, the self-cleavage amounted to 0.04.

For the variant U28A U38G C46A, the self-cleavage turned out to be 0.06.

C10G G27U C37G C45G: the self-cleavage was determined as 0.01.

On to G2U A26U C37A G40C, for which the self-cleavage stood at 0.02.

G2U C3A G22A G29U C37G: the self-cleavage is 0.02.

In the case of A6U C15U U32C U34G, the self-cleavage turned out to be 0.04.

As to C3A A11U G19U U28G, the self-cleavage amounted to 0.01.

Consider G5C A24G G30C G44C, for which the self-cleavage worked out at 0.02.

As to G17A C37U U43A, the self-cleavage came to 0.14.

For the variant C18A U43G C45G, the self-cleavage was 0.04.

As to C3U C18A U34C, the self-cleavage turned out to be 0.07.

For the variant A4G G7C C13A G17C G22C G27U, the self-cleavage is 0.11.

As to C13G C15A A16U A26G, the self-cleavage was 0.09.

In the case of G2U A26U G30A C31A, the self-cleavage came out at 0.02.

With C10A C15U G40A, the self-cleavage came out at 0.01.

As for C10A A11C U20A A24U A25U, the self-cleavage turned out to be 0.01.

Consider A26C G30U A39U A41C, for which the self-cleavage was 0.06.

On to A14G G30C C37A C45A, for which the self-cleavage amounted to 0.

For C10A U20C G40A G44A, the self-cleavage was found to be 0.01.

Regarding U20G G35A C42A, the self-cleavage is 0.02.

As to A14G C15A G19C, the self-cleavage amounted to 0.17.

As for C3U C8G C37U, the self-cleavage stood at 0.31.

Take G7C A26U C45A: the self-cleavage was 0.08.

In the case of G7A G17A G30A C45G C46G, the self-cleavage stood at 0.03.

As for G17U G21U C23U, the self-cleavage was 0.39.

For C3G A12G C15G C23G U28A, the self-cleavage was 0.01.

As for A6G G7C C42U, the self-cleavage is 0.13.

Take C3U G5A A12G C15A G22C: the self-cleavage amounted to 0.03.

Consider A4C U9A G19A U28G, for which the self-cleavage worked out at 0.07.

Turning to C15A G33U G35C U38C, the self-cleavage came out at 0.07.

Take G1U U9A G30A C37G A39C: the self-cleavage worked out at 0.05.

As to C8G C15U A25G A39U, the self-cleavage was 0.12.

On to C10U U20A U43G, for which the self-cleavage was found to be 0.02.

For the variant G5A C31G U34G C37G, the self-cleavage stood at 0.

In the case of C18U C31A G40U, the self-cleavage came out at 0.01.

C18U G27U G29U G33C C37G: the self-cleavage came out at 0.07.

As to G1U A6C C37U G40C, the self-cleavage worked out at 0.3.

U20G G21A C31U: the self-cleavage is 0.22.

As to G1C G2A A14C G35U, the self-cleavage was found to be 0.03.

Consider C10U G19A G29C A41C, for which the self-cleavage came to 0.01.

As for G7U U43A C45G, the self-cleavage turned out to be 0.06.

For A6C G17A C31A G36U C42G, the self-cleavage worked out at 0.01.

Take A24U A25G G27C G30A: the self-cleavage was found to be 0.55.

Take C15A G29C C31U G33C G35C: the self-cleavage was determined as 0.03.

In the case of U9C A39C A41C, the self-cleavage amounted to 0.08.

As to G2C C15G G35C C46U, the self-cleavage amounted to 0.2.

As to G35C G44C C45G, the self-cleavage came to 0.01.

Regarding C3G A6C A11G G17U G40A, the self-cleavage is 0.02.

U9G G17U G21C G22A C31U: the self-cleavage was found to be 0.01.

As to A14U C23A C46A, the self-cleavage came to 0.23.

For C3A C13U U28A G29A U32A, the self-cleavage was determined as 0.24.

As for C8A U20C G22C A25C A26C, the self-cleavage stood at 0.03.

Take G5A C15U A16U C18G G21C G27C: the self-cleavage is 0.08.

As to U9C G21U G27C, the self-cleavage was 0.02.

On to G2A U9A G19A C42U, for which the self-cleavage was determined as 0.11.

On to C10A A14U C23U G35U G36C, for which the self-cleavage came out at 0.01.

G2C A4C C10A A12G G30C G40U: the self-cleavage turned out to be 0.01.

In the case of U9C G36A A41C, the self-cleavage was found to be 0.06.

Consider C15U U28G U32C, for which the self-cleavage amounted to 0.12.

In the case of A4G G29A G36U C42A, the self-cleavage turned out to be 0.01.

With G19A G35U C45G, the self-cleavage was determined as 0.08.

In the case of A4C U28G G35A C42G C45U, the self-cleavage was determined as 0.05.

In the case of C3A C10G C42A, the self-cleavage was 0.

For A4G G7C C13A A16G C31G C42U, the self-cleavage worked out at 0.01.

Regarding C18U G19A G22C A41C, the self-cleavage was 0.03.

For G5C C8A U38A, the self-cleavage was 0.52.

With G7U U32C C42U, the self-cleavage came to 0.3.

As to A11G A12C A25C C45U, the self-cleavage worked out at 0.02.

For G2U A24C G27C, the self-cleavage stood at 0.08.

Take A12C C15A G27U G36A G40A G44U C45U: the self-cleavage is 0.01.

For the variant G33A G35A U38C, the self-cleavage was determined as 0.04.

Take G2C C31U C42G U43A: the self-cleavage was 0.02.

As to A16G C18A U32G G44A, the self-cleavage was found to be 0.01.

Take C8U C10U C15A U32A: the self-cleavage turned out to be 0.01.

With G5A A12G A24U, the self-cleavage came to 0.03.

For U9A G29U G35U, the self-cleavage amounted to 0.

Take A4C C13A C18A C23A U38C: the self-cleavage amounted to 0.03.

As for A6U C8G C13U G22C A26G G29U C37G, the self-cleavage is 0.42.

Consider C3A G27C G36U U43G, for which the self-cleavage worked out at 0.15.

Regarding G5A G7U A11G G21A U38G, the self-cleavage was found to be 0.01.

As for A26C U34A G44A, the self-cleavage turned out to be 0.06.

As for C8U G21A C42G C45U, the self-cleavage turned out to be 0.27.

Take G5A C13G G27A: the self-cleavage turned out to be 0.04.

For G5U G7U C10G A41C G44A, the self-cleavage turned out to be 0.03.

For the variant G2C G29A G35A C42A, the self-cleavage stood at 0.14.

In the case of G5C C15G G17U U28G U32G, the self-cleavage stood at 0.02.

For the variant G1U G5U G30A C42G U43G, the self-cleavage was 0.
